# From the supplement of paper PMC8728848
# The other results are listed elsewhere or left out.
# B1: PRKCE (Homo sapiens), Q02156 (protein)
# chain: MVVFNGLLKIKICEAVSLKPTAWSLRHAVGPRPQTFLLDPYIALNVDDSRIGQTATKQKTNSPAWHDEFVTDVCNGRKIELAVFHDAPIGYDDFVANCTIQFEELLQNGSRHFEDWIDLEPEGRVYVIIDLSGSSGEAPKDNEERVFRERMRPRKRQGAVRRRVHQVNGHKFMATYLRQPTYCSHCRDFIWGVIGKQGYQCQVCTCVVHKRCHELIITKCAGLKKQETPDQVGSQRFSVNMPHKFGIHNYKVPTFCDHCGSLLWGLLRQGLQCKVCKMNVHRRCETNVAPNCGVDARGIAKVLADLGVTPDKITNSGQRRKKLIAGAESPQPASGSSPSEEDRSKSAPTSPCDQEIKELENNIRKALSFDNRGEEHRAASSPDGQLMSPGENGEVRQGQAKRLGLDEFNFIKVLGKGSFGKVMLAELKGKDEVYAVKVLKKDVILQDDDVDCTMTEKRILALARKHPYLTQLYCCFQTKDRLFFVMEYVNGGDLMFQIQRSRKFDEPRSRFYAAEVTSALMFLHQHGVIYRDLKLDNILLDAEGHCKLADFGMCKEGILNGVTTTTFCGTPDYIAPEILQELEYGPSVDWWALGVLMYEMMAGQPPFEADNEDDLFESILHDDVLYPVWLSKEAVSILKAFMTKNPHKRLGCVASQNGEDAIKQHPFFKEIDWVLLEQKKIKPPFKPRIKTKRDVNNFDQDFTREEPVLTLVDEAIVKQINQEEFKGFSYFGEDLMP
# Tests used:
# Test in all cases: glycan array binding signal (z-score within array); higher = stronger binding
# Details in all cases: glycan notation: IUPAC condensed, linker removed
# [1] = target: Glc(a1-4)Glc
# In short: (§1)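 Glycan array binding is given as a within-array Z-score, which can be read as non-binding when negative. The arrays, 3228 of them, came from the Consortium for Functional Glycomics database and were retained only where the protein sequence was available. Z-scores were averaged across arrays of the same protein sequence at different concentrations or buffers and across linkers.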
# [2] = target: Glc(a1-4)Glc(a1-4)Glc(a1-4)Glc
# In short: as §1
# [3] = target: Glc(a1-6)Glc(a1-6)Glc
# In short: as §1
# [4] = target: Glc(a1-6)Glc(a1-6)Glc(a1-6)Glc
# In short: as §1
# [5] = target: Glc(b1-4)Glc
# In short: as §1
# [6] = target: Glc(b1-6)Glc
# In short: as §1
# [7] = target: GlcA(b1-3)Gal
# In short: as §1
# [8] = target: GlcA(b1-3)GlcNAc
# In short: as §1
# [9] = target: GlcA(b1-6)Gal
# In short: as §1
# [10] = target: GlcNAc(a1-3)Gal(b1-4)GlcNAc
# In short: as §1
# [11] = target: GlcNAc(a1-4)Gal(b1-3)GlcNAc
# In short: as §1
# [12] = target: GlcNAc(a1-4)Gal(b1-4)GalNAc
# In short: as §1
# [13] = target: GlcNAc(a1-4)Gal(b1-4)GlcNAc
# In short: as §1
# [14] = target: GlcNAc(a1-4)Gal(b1-4)GlcNAc(b1-3)Gal(b1-4)Glc
# In short: as §1
# [15] = target: GlcNAc(a1-4)Gal(b1-4)GlcNAc(b1-3)Gal(b1-4)GlcNAc
# In short: as §1
# [16] = target: GlcNAc(a1-4)Gal(b1-4)GlcNAc(b1-3)Gal(b1-4)GlcNAc(b1-3)Gal(b1-4)GlcNAc
# In short: as §1
# [17] = target: GlcNAc(a1-4)Gal(b1-4)GlcNAc(b1-3)Gal(b1-4)[Fuc(a1-3)]GlcNAc(b1-3)Gal(b1-4)[Fuc(a1-3)]GlcNAc
# In short: as §1
# [18] = target: GlcNAc(a1-6)Gal(b1-4)GlcNAc
# In short: as §1
# [19] = target: GlcNAc(b1-2)Gal(b1-3)GalNAc
# In short: as §1
# [20] = target: GlcNAc(b1-2)Man(a1-3)[GlcNAc(b1-2)Man(a1-6)]Man(b1-4)GlcNAc(b1-4)GlcNAc
# In short: as §1
# [21] = target: GlcNAc(b1-2)Man(a1-3)[GlcNAc(b1-2)Man(a1-6)]Man(b1-4)GlcNAc(b1-4)[Fuc(a1-6)]GlcNAc
# In short: as §1
# [22] = target: GlcNAc(b1-2)Man(a1-3)[GlcNAc(b1-4)][GlcNAc(b1-2)Man(a1-6)]Man(b1-4)GlcNAc(b1-4)GlcNAc
# In short: as §1
# [23] = target: GlcNAc(b1-2)[GlcNAc(b1-4)]Man(a1-3)[GlcNAc(b1-2)Man(a1-6)]Man(b1-4)GlcNAc(b1-4)GlcNAc
# In short: as §1
# [24] = target: GlcNAc(b1-2)[GlcNAc(b1-4)]Man(a1-3)[GlcNAc(b1-4)][GlcNAc(b1-2)Man(a1-6)]Man(b1-4)GlcNAc(b1-4)GlcNAc
# In short: as §1
# [25] = target: GlcNAc(b1-2)[GlcNAc(b1-4)]Man(a1-3)[GlcNAc(b1-4)][GlcNAc(b1-2)[GlcNAc(b1-6)]Man(a1-6)]Man(b1-4)GlcNAc(b1-4)GlcNAc
# In short: as §1
# [26] = target: GlcNAc(b1-2)[GlcNAc(b1-4)]Man(a1-3)[GlcNAc(b1-4)][GlcNAc(b1-2)[GlcNAc(b1-6)]Man(a1-6)]Man(b1-4)GlcNAc(b1-4)[Fuc(a1-6)]GlcNAc
# In short: as §1
# [27] = target: GlcNAc(b1-2)[GlcNAc(b1-6)]Man(a1-6)[GlcNAc(b1-2)Man(a1-3)]Man(b1-4)GlcNAc(b1-4)GlcNAc
# In short: as §1
# [28] = target: GlcNAc(b1-2)[GlcNAc(b1-6)]Man(a1-6)[GlcNAc(b1-2)Man(a1-3)]Man(b1-4)GlcNAc(b1-4)[Fuc(a1-6)]GlcNAc
# In short: as §1
# [29] = target: GlcNAc(b1-2)[GlcNAc(b1-6)]Man(a1-6)[GlcNAc(b1-2)Man(a1-3)][GlcNAc(b1-4)]Man(b1-4)GlcNAc(b1-4)GlcNAc
# In short: as §1
# [30] = target: GlcNAc(b1-3)Gal
# In short: as §1
# [31] = target: GlcNAc(b1-3)Gal(b1-3)GalNAc
# In short: as §1
# [32] = target: GlcNAc(b1-3)Gal(b1-4)Glc
# In short: as §1
# [33] = target: GlcNAc(b1-3)Gal(b1-4)GlcNAc
# In short: as §1
# [34] = target: GlcNAc(b1-3)Gal(b1-4)GlcNAc(b1-3)Gal(b1-4)GlcNAc
# In short: as §1
# [35] = target: GlcNAc(b1-3)GalNAc
# In short: as §1
# [36] = target: GlcNAc(b1-3)Man
# In short: as §1
# [37] = target: GlcNAc(b1-3)[GlcNAc(b1-4)][GlcNAc(b1-6)]GlcNAc
# In short: as §1
# [38] = target: GlcNAc(b1-3)[GlcNAc(b1-6)]Gal(b1-4)GlcNAc
# In short: as §1
# [39] = target: GlcNAc(b1-3)[GlcNAc(b1-6)]GalNAc
# In short: as §1
# [40] = target: GlcNAc(b1-4)Gal(b1-4)GlcNAc
# In short: as §1
# [41] = target: GlcNAc(b1-4)GlcNAc
# In short: as §1
# [42] = target: GlcNAc(b1-4)GlcNAc(b1-4)GlcNAc
# In short: as §1
# [43] = target: GlcNAc(b1-4)GlcNAc(b1-4)GlcNAc(b1-4)GlcNAc(b1-4)GlcNAc
# In short: as §1
# [44] = target: GlcNAc(b1-4)GlcNAc(b1-4)GlcNAc(b1-4)GlcNAc(b1-4)GlcNAc(b1-4)GlcNAc
# In short: as §1
# [45] = target: GlcNAc(b1-4)[GlcNAc(b1-6)]GalNAc
# In short: as §1
# [46] = target: GlcNAc(b1-6)Gal(b1-4)GlcNAc
# In short: as §1
# [47] = target: GlcNAc(b1-6)GalNAc
# In short: as §1
# [48] = target: GlcNAc3Prop(b1-4)GlcNAc
# In short: as §1
# [49] = target: GlcNAc6S(b1-3)Gal(b1-4)GlcNAc
# In short: as §1
# [50] = target: Kdn(a2-3)Gal(b1-3)GalNAc
# In short: as §1
# [51] = target: Kdn(a2-3)Gal(b1-3)GlcNAc
# In short: as §1
# [52] = target: Kdn(a2-3)Gal(b1-4)Glc
# In short: as §1
# [53] = target: Kdn(a2-3)Gal(b1-4)GlcNAc
# In short: as §1
# [54] = target: Kdn(a2-3)Gal(b1-4)[Fuc(a1-3)]GlcNAc
# In short: as §1
# [55] = target: Kdn(a2-6)Gal(b1-4)GlcNAc
# In short: as §1
# [56] = target: Man(a1-2)Man(a1-2)Man(a1-3)Man
# In short: as §1
# [57] = target: Man(a1-2)Man(a1-2)Man(a1-6)[Man(a1-3)]Man
# In short: as §1
# [58] = target: Man(a1-2)Man(a1-3)Man
# In short: as §1
# [59] = target: Man(a1-2)Man(a1-3)[Man(a1-2)Man(a1-6)]Man
# In short: as §1
# [60] = target: Man(a1-2)Man(a1-3)[Man(a1-2)Man(a1-6)]Man(a1-6)[Man(a1-2)Man(a1-2)Man(a1-3)]Man
# In short: as §1
binder,measurement,setting,value
B1,glycan array binding signal (z-score),[1],0.944
same,glycan array binding signal (z-score),[2],0.458
same,glycan array binding signal (z-score),[3],0.238
same,glycan array binding signal (z-score),[4],-0.072
same,glycan array binding signal (z-score),[5],0.856
same,glycan array binding signal (z-score),[6],0.383
same,glycan array binding signal (z-score),[7],0.378
same,glycan array binding signal (z-score),[8],-0.247
same,glycan array binding signal (z-score),[9],0.23
same,glycan array binding signal (z-score),[10],-0.387
same,glycan array binding signal (z-score),[11],-0.319
same,glycan array binding signal (z-score),[12],1.01
same,glycan array binding signal (z-score),[13],-0.34
same,glycan array binding signal (z-score),[14],-0.252
same,glycan array binding signal (z-score),[15],-0.238
same,glycan array binding signal (z-score),[16],-0.23
same,glycan array binding signal (z-score),[17],2.52
same,glycan array binding signal (z-score),[18],-0.384
same,glycan array binding signal (z-score),[19],-0.331
same,glycan array binding signal (z-score),[20],-0.323
same,glycan array binding signal (z-score),[21],-0.381
same,glycan array binding signal (z-score),[22],-0.401
same,glycan array binding signal (z-score),[23],-0.347
same,glycan array binding signal (z-score),[24],-0.347
same,glycan array binding signal (z-score),[25],-0.11
same,glycan array binding signal (z-score),[26],-0.16
same,glycan array binding signal (z-score),[27],-0.017
same,glycan array binding signal (z-score),[28],0.031
same,glycan array binding signal (z-score),[29],-0.41
same,glycan array binding signal (z-score),[30],-0.275
same,glycan array binding signal (z-score),[31],-0.414
same,glycan array binding signal (z-score),[32],-0.403
same,glycan array binding signal (z-score),[33],-0.348
same,glycan array binding signal (z-score),[34],-0.39
same,glycan array binding signal (z-score),[35],-0.409
same,glycan array binding signal (z-score),[36],-0.38
same,glycan array binding signal (z-score),[37],4.39
same,glycan array binding signal (z-score),[38],-0.413
same,glycan array binding signal (z-score),[39],-0.151
same,glycan array binding signal (z-score),[40],-0.411
same,glycan array binding signal (z-score),[41],-0.322
same,glycan array binding signal (z-score),[42],-0.357
same,glycan array binding signal (z-score),[43],-0.405
same,glycan array binding signal (z-score),[44],-0.397
same,glycan array binding signal (z-score),[45],-0.393
same,glycan array binding signal (z-score),[46],-0.413
same,glycan array binding signal (z-score),[47],-0.382
same,glycan array binding signal (z-score),[48],-0.229
same,glycan array binding signal (z-score),[49],-0.323
same,glycan array binding signal (z-score),[50],-0.132
same,glycan array binding signal (z-score),[51],-0.38
same,glycan array binding signal (z-score),[52],-0.371
same,glycan array binding signal (z-score),[53],-0.214
same,glycan array binding signal (z-score),[54],-0.29
same,glycan array binding signal (z-score),[55],-0.237
same,glycan array binding signal (z-score),[56],-0.308
same,glycan array binding signal (z-score),[57],-0.232
same,glycan array binding signal (z-score),[58],-0.312
same,glycan array binding signal (z-score),[59],0.542
same,glycan array binding signal (z-score),[60],0.052
